The whole screen tested about 91,000 compounds, of which about 290 (0.32%) were called active. Inconclusive results, whose numbers are uncertain, are shown with a selection of clear calls. Calls follow the shape of the dose curve; as a rule, active = well fitted inhibition curve with a large enough effect; inconclusive = small, poorly fitted or top-dose-only effect; inactive = no such curve, though single readings can be large or run the other way. A potency beside an inconclusive call is a rough fit, not a confirmed value.
molecular target: Single-stranded DNA cytosine deaminase (Homo sapiens) (UniProt Q9GZX7); test: Primary qHTS assay for inhibitors of Activation Induced Cytidine Deaminase (AID): AID signal; details: AID deamination FRET fluorescence, UDG-coupled, 4 h; series mostly up to 115 µM; also: nearly all actives have a fitted effect of over 25% in size
UniProt Q9GZX7, sequence (Q9GZX7 whole entry, looked up): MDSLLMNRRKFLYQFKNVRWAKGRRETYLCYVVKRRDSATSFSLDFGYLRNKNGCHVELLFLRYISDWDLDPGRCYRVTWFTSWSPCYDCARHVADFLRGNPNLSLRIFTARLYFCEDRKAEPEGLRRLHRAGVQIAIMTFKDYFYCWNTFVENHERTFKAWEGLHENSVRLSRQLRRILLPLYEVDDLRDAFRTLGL
Potency is read from the fitted curve at half-maximal effect; tags tell the direction and shape of the fitted curve.

Row | Structure (SMILES) | Potency
1 | COc1cc(C(=O)Nc2ccc(NC(=O)c3ccc(Br)cc3)cc2)cc(OC)c1OC | inconclusive: 17.8 µM [inhibitor, partial curve, poor fit]
2 | Cc1ccc(-c2csc(CCn3nc(C)c4c(C(F)(F)F)cc(=O)[nH]c43)n2)cc1 | inactive
3 | COc1ccc(-c2ccc(=O)n(CC(=O)NCc3cccnc3)n2)c(F)c1 | inactive
4 | O=C(COC(=O)CC12CC3CC(CC(C3)C1)C2)Nc1ccc(F)c([N+](=O)[O-])c1 | inactive
5 | Cn1ccc2c(OCC(=O)NCc3ccccc3Cl)cccc2c1=O | inactive
6 | CCCOc1ccc(C(=O)C(CCC(CNC(C)(C)C)C(=O)c2ccc(OCCC)cc2)CNC(C)(C)C)cc1 (configuration not stated) | inconclusive: 56.2 µM [inhibitor, partial curve, poor fit]
7 | COc1cccc(CNC(=O)Cc2c(C)c3c(cc(C)c4c(C)coc43)oc2=O)c1 | inactive
8 | CCOc1ccc(NC(=O)Nc2ccc3snnc3c2)cc1 | inconclusive: 35.5 µM [inhibitor, single point]
9 | CCc1c(C)sc(NC(=O)c2cc(-c3ccc(C)cc3C)nc3ccccc23)c1C#N | inactive
10 | CC1CCN(C(=O)c2cc(-c3cccc(Cl)c3)on2)CC1 | inactive
11 | CCOc1cc(/C=C/C(=O)c2ccccc2Cl)cc(Cl)c1O | inactive
12 | CCOCCCn1c(SCC(=O)Nc2cccc(OC)c2)nc2ccccc2c1=O | inconclusive: 25.1 µM [inhibitor, full curve, poor fit]
13 | CCOc1ccccc1CNC(=O)c1cnc2sc(N3CCCC3)nn2c1=O | inconclusive: 50.1 µM [inhibitor, partial curve, poor fit]
14 | CN(C)C/C=C(/c1ccc(Br)cc1)c1cccnc1 | inactive
15 | Cc1ccc(Cl)cc1Nc1nn2c(=O)c3ccc(C(=O)NCc4cccs4)cc3nc2s1 | inconclusive: 50.1 µM [inhibitor, partial curve, poor fit]
16 | CC(C)(CNC(=O)NCc1nc2ccccc2s1)N1CCOCC1 | inactive
17 | COc1ccc(C2NC(=O)c3c(sc4c3CCN(C)C4)N2)cc1O (configuration not stated) | inconclusive: 100 µM [inhibitor, single point]
18 | Cc1cccc(CN2C(=O)CC(c3ccc(Cl)cc3)c3c(C)nn(-c4nc(C)cc(C)n4)c32)c1 (configuration not stated) | inconclusive: 79.4 µM [inhibitor, partial curve, poor fit]
19 | COc1ccc(-n2nc(C)c3c2NC(=O)CC3c2ccccc2OCC(C)C)nn1 (configuration not stated) | inconclusive: 89.1 µM [inhibitor, partial curve, poor fit]
20 | COc1ccc(Cn2ccnc2SCC(=O)NCc2ccccc2)cc1 | inconclusive: 89.1 µM [inhibitor, single point]
21 | COc1ccc(-c2nc3nc(C)cc(Nc4ccc(C(C)=O)cc4)n3n2)cc1 | inconclusive: 44.7 µM [inhibitor, partial curve, poor fit]

Row | Structure (SMILES) | Potency
22 | COc1cccc(NC(=O)c2oc3ccccc3c2NC(=O)C23CC4CC(CC(C4)C2)C3)c1 | inconclusive: 56.2 µM [inhibitor, partial curve, poor fit]
23 | COc1ccc(NC(=O)C(=O)NCCc2csc(-c3ccc(Cl)cc3)n2)cc1 | inconclusive: 2.82 µM [inhibitor, full curve, poor fit]
24 | CCCCCn1nc(C(=O)NCc2ccccc2F)c2ccccc2c1=O | inconclusive: 44.7 µM [inhibitor, partial curve, poor fit]
25 | COc1ccc(Nc2nc(Nc3ccc(F)cc3)nc3nccnc23)cc1 | active: 25.1 µM
26 | Cc1ccccc1CN1CCc2nc(Nc3ccc4c(c3)OCCO4)ncc2C1 | inconclusive: 25.1 µM [inhibitor, full curve, poor fit]
27 | Cc1nc2nc(SCC(=O)NCc3ccccc3)nn2c(C)c1Cc1ccccc1Cl | inconclusive: 89.1 µM [inhibitor, partial curve, poor fit]
28 | Cc1ccc(-n2ncc3c(NCCc4ccccc4)ncnc32)cc1C | inconclusive: 35.5 µM [inhibitor, full curve, poor fit]
29 | CCOC(=O)CSc1nc2sc3c(c2c(=O)n1Cc1ccccc1)CC(C)CC3 (configuration not stated) | inconclusive: 15.8 µM [inhibitor, single point]
30 | CCOc1ccccc1NS(=O)(=O)c1ccc(-c2coc(C)n2)cc1 | inactive
31 | Cc1ccc(C)n1-c1nnc(N2CCCC(C(=O)Nc3ccccc3F)C2)s1 (configuration not stated) | inactive
32 | Cc1cccc(C)c1OCC(=O)N(Cc1ccc(Cl)cc1)CC1CCCO1 (configuration not stated) | inconclusive: 79.4 µM [inhibitor, single point]
33 | Cc1ccc(C)c(N2CCN(C(=O)c3ccc4c(c3)c(C)c(C)n4C)CC2)c1 | inconclusive: 39.8 µM [inhibitor, full curve, poor fit]
34 | CCOc1ccccc1C1CC(=O)NC(C)=C1C(=O)OCc1ccc(C)cc1 (configuration not stated) | inconclusive: 39.8 µM [inhibitor, single point]
35 | CCOC(=O)C1C(=O)C=C(c2ccco2)CC1c1ccccc1 (configuration not stated) | inactive
36 | CCOc1ccccc1NC(=O)Cn1nc2c3cc(F)ccc3n(Cc3cccc(C)c3)cc-2c1=O | inconclusive: 39.8 µM [inhibitor, single point]
37 | COc1ccc(/C=C/c2nc(C#N)c(NC3CCCCC3)o2)cc1OC | inconclusive: 70.8 µM [inhibitor, partial curve, poor fit]
38 | O=C(C1=C(O)C(=O)N(c2nc3ccc(Cl)cc3s2)C1c1ccco1)c1ccco1 (configuration not stated) | active: 50.1 µM
39 | COc1ccc(C(=O)c2cn(Cc3cccc(C)c3)c3cc4c(cc3c2=O)OCCO4)cc1OC | inconclusive: 20 µM [inhibitor, full curve, poor fit]
40 | CCc1ccc(NC(=O)c2oc3c(c2C)-c2[nH]ncc2CC3)cc1 | inconclusive: 89.1 µM [inhibitor, single point]
41 | CCOCCCn1c(=N)c(C(=O)NC2CCCC2)cc2c(=O)n3cccc(C)c3nc21 | inconclusive: 63.1 µM [inhibitor, single point]
42 | Cc1nnc2c3ccccc3nc(N3CCN(c4cccc(Cl)c4)CC3)n12 | inconclusive: 50.1 µM [inhibitor, partial curve, poor fit]
